{"source": "PubChem BioAssay AID1345083", "about": "(National Center for Advancing Translational Sciences (NCATS), 2018)", "note": "“And” between values parts separate entries of the source, which are not always exact repeats. Equal values may be shown once. The whole screen tested about 94,000 compounds, of which about 6,200 (6.6%) were called active. Inconclusive means that the source gave no clear call. Such entries were picked first, then a sample of the others. Calls come from the whole dose curve; as a rule, active = well fitted inhibition curve with a large enough effect; inconclusive = small, poorly fitted or top-dose-only effect; inactive = flat fitted curve, though single readings scatter. Where the call is inconclusive, the potency comes from a doubtful curve fit. Potency is the fitted concentration of half-maximal effect; tags give direction and shape of the fitted curve."}
{"assay": "Cytotoxic Profiling in HEK 293 Cell Line of Diverse Libraries Using Quantitative High-Throughput Screening; note: nearly all actives have a fitted effect of over 60% in size", "settings": "HEK 293 viability, ATP luminescence (CellTiter-Glo), 48-72 h; series mostly up to 115 µM", "summary_of_the_method": "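Cells seeded first (HEK 293, 250 cells/well), then compound added by pintool. Incubation ran 48 or 72 hr at 37 degree Celsius. CellTiter-Glo was added and luminescence imaged after 10 min at room temperature.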"}
{"smiles": "N#Cc1ccc(CN2CCC3(CC2)CNc2ccccc2[S+](=O)([O-])N3)cc1", "Potency": "inconclusive: 8.91 µM [inhibitor, partial curve, poor fit]"}
{"smiles": "COc1cccc(-c2ccc(CN3CCCC3C(=O)N3CCC(C#N)CC3)cc2)c1", "note": "(configuration not stated)", "Potency": "inactive"}
{"smiles": "CN1c2cc(C(=O)Nc3ccc(F)c(F)c3)ccc2C(=O)N2CCCCC21", "note": "(configuration not stated)", "Potency": "inactive"}
{"smiles": "CCCCCNC(=O)c1cc(-c2ccc(OC)cc2)nc2c1cnn2C", "Potency": "inconclusive: 44.7 µM [inhibitor, partial curve, poor fit]"}
{"smiles": "Cc1cc(=O)n(CC(=O)Nc2cccc(C(F)(F)F)c2)c(N2CCN(c3ccccc3)CC2)n1", "Potency": "inconclusive: 50.1 µM [inhibitor, partial curve, poor fit]"}
{"smiles": "COCCNC(=O)[C@H]1C[C@H](Oc2cccnc2)CN1C(=O)Nc1ccc2c(c1)OCCO2", "Potency": "inactive"}
{"smiles": "CCC(CC)NC(=O)CC1CCCN(c2cnn(CC3CC3)c(=O)c2)C1", "note": "(configuration not stated)", "Potency": "inactive"}
{"smiles": "Cn1nc(-c2ccncc2)cc1NC(=O)c1ccc(C(F)(F)F)cc1", "Potency": "active: 11.2 µM"}
{"smiles": "CC(=O)Nc1ccccc1-c1c(C)nn2c1N(CCC(C)C)CCC2", "Potency": "inconclusive: 79.4 µM [inhibitor, partial curve, poor fit]"}
{"smiles": "Cc1ccc(C(=O)N2C[C@H](c3nc(-c4cccnc4)no3)[C@@H](C)C2)c(C)c1", "Potency": "inconclusive: 89.1 µM [inhibitor, single point]"}
{"smiles": "O=S(=O)(NCC1CCOCC1)c1ccccc1F", "Potency": "inactive"}
{"smiles": "COc1ccccc1CN1CCN(C(=O)C2CCCN(Cc3cccnc3)CCC(=O)NCC2)CC1", "note": "(configuration not stated)", "Potency": "inactive"}
{"smiles": "CC(C)(Oc1nn(CCN2CCOCC2)c2ccccc12)C(=O)NCCOc1ccccc1", "Potency": "inconclusive: 79.4 µM [inhibitor, single point]"}
{"smiles": "Cc1cccc(-c2noc([C@@H]3Cc4nc[nH]c4CN3C(=O)c3ccccc3C(=O)O)n2)c1", "Potency": "inactive"}
{"smiles": "CCOCc1nc(C2CCCN(C(=O)NCCc3ccccc3)C2)no1", "note": "(configuration not stated)", "Potency": "inactive"}
{"smiles": "CN1CCCCCC(O)c2cc(C(=O)N3CCN(c4ncccn4)CC3)ccc21", "note": "(configuration not stated)", "Potency": "inconclusive: 50.1 µM [inhibitor, partial curve, poor fit]"}
{"smiles": "Cn1cc(CN2CCC(C(=O)N3CCCC3)CC2)c(-c2ccc(C3CCCCC3)cc2)n1", "Potency": "inactive"}
{"smiles": "Cc1nn2c(c1-c1ccccc1OCc1ccccc1)N(C(=O)Cc1ccccc1)CCC2", "Potency": "active: 79.4 µM"}
{"smiles": "COc1cccc(NC(=O)Cn2c(-c3ccc(F)cc3)nc(C)c(CCO)c2=O)c1", "Potency": "inconclusive: 89.1 µM [inhibitor, single point]"}
{"smiles": "COc1ccc(NC(=O)N2CCCC(Cn3c(C4CC4)nc4cccnc43)C2)cc1Cl", "note": "(configuration not stated)", "Potency": "active: 70.8 µM"}
{"smiles": "COCCNC(=O)[C@@H]1C[C@H](Oc2ccccc2)CN1C(=O)c1ocnc1C", "Potency": "inactive"}
{"smiles": "CC(C)CNC(=O)c1cccc2c1CCN2C(=O)c1ccc(F)cc1", "Potency": "inconclusive: 89.1 µM [inhibitor, single point]"}
{"smiles": "COc1ccc(-c2noc([C@@H]3CCCN3C(=O)c3ccc(F)c(F)c3)n2)cc1OC", "Potency": "inconclusive: 89.1 µM [inhibitor, single point]"}
{"smiles": "COCCN1C(=O)[C@H]2CN(Cc3cccc(OC)c3)C[C@H]2C1=O", "Potency": "inactive"}
{"smiles": "CN(C)C[C@@H]1CN(S(C)(=O)=O)C[C@H]1NC(=O)CCC1CCCC1", "Potency": "inactive"}
{"smiles": "Cc1ccc(CN2CCCOCCNC(=O)[C@@H]3CCCC[C@@H]32)o1", "Potency": "inconclusive: 39.8 µM [inhibitor, full curve, poor fit]"}
{"smiles": "CN1C(=O)C2(CCCN(C(=O)c3ccc(=O)[nH]c3)C2)c2ccccc21", "note": "(configuration not stated)", "Potency": "inactive"}
{"smiles": "COc1ccc(S(N)(=O)=O)cc1C(=O)NC1CCOC2(CCOCC2)C1", "note": "(configuration not stated)", "Potency": "inactive"}
{"smiles": "Cc1ccc(Nc2ccnc(N3CCC(C(=O)NCCCc4ccccc4)CC3)n2)cc1", "Potency": "inconclusive: 17.8 µM [inhibitor, full curve, poor fit]"}
{"smiles": "CC(C)(CC(=O)O)CC(=O)N[C@H]1C[C@H]2C(=O)Nc3ccc(-c4ccsc4)cc3C(=O)N2C1", "Potency": "inactive"}
{"smiles": "O=C1NCCCc2[nH]c(-c3csc(-c4ccccc4)n3)nc21", "Potency": "inconclusive: 28.2 µM [inhibitor, full curve]"}
{"smiles": "COCc1nc(C2CC(NC(=O)c3cc(Cl)cn3C)C2)cc(=O)[nH]1", "note": "(configuration not stated)", "Potency": "inactive"}
{"smiles": "O=C(CCC[C@@H]1[C@H]2CCCN3CCC[C@@H](CN1C(=O)c1ccccc1)[C@@H]23)NCc1ccc(F)cc1", "Potency": "inconclusive: 89.1 µM [inhibitor, single point]"}
{"smiles": "Cc1noc(C)c1Cn1ccn2nc3c(c2c1=O)CCCC3", "Potency": "inactive"}
{"smiles": "CNC(=O)[C@H]1C[C@H](Oc2ccccc2)CN1Cc1cn(C)c2ccc(OC)cc12", "Potency": "active: 28.2 µM"}
{"smiles": "CC(=O)N1CCc2nc(-c3ccc(Cl)cc3)nc(-c3ccccc3)c2C1", "Potency": "inconclusive: 89.1 µM [inhibitor, partial curve, poor fit]"}
{"smiles": "Cc1cc(C)c(CNC(=O)c2cc(-c3ccccc3C)cc3c2OCCN3C(C)C)c(=O)[nH]1", "Potency": "inconclusive: 50.1 µM [inhibitor, partial curve, poor fit]"}
{"smiles": "Cc1ccc(CC(=O)N2CCC(Cc3nc(C(C)C)no3)CC2)cc1", "Potency": "inconclusive: 70.8 µM [inhibitor, single point]"}
{"smiles": "CNC(=O)[C@H]1C[C@H](Oc2ccccc2)CN1C(=O)c1ccccn1", "Potency": "inactive"}
{"smiles": "CC1Oc2ccc(NS(=O)(=O)c3ccc(F)cc3)cc2CN(Cc2ccc(F)cc2)C1=O", "note": "(configuration not stated)", "Potency": "active: 44.7 µM"}
{"smiles": "CS(=O)(=O)c1ccc(O[C@H]2COCCN(C3CCC3)C2)cc1", "Potency": "inactive"}
{"smiles": "COc1ccccc1-c1nc(C(=O)NCc2cccs2)n2ccncc12", "Potency": "inconclusive: 89.1 µM [inhibitor, single point]"}
{"smiles": "CC(C)c1ccc(C(=O)N2CC(C(=O)NC3CCCCC3)C3(CCOCC3)C2)cc1", "note": "(configuration not stated)", "Potency": "inconclusive: 89.1 µM [inhibitor, partial curve, poor fit]"}
{"smiles": "Cc1cccc(C(=O)N2CCC(Cc3ncc(C)n3CC3CC3)CC2)c1", "Potency": "inactive"}
{"smiles": "O=C(NCCc1ccc(Cl)cc1)C1CCCN1C(=O)c1cccc(-c2ccccn2)c1", "note": "(configuration not stated)", "Potency": "inactive and inconclusive: 79.4 µM [inhibitor, single point]"}
{"smiles": "COCCNC(=O)c1ccc2c(c1)NC(C)(COc1ccc(OC)cc1)CO2", "note": "(configuration not stated)", "Potency": "inconclusive: 44.7 µM [inhibitor, full curve]"}
{"smiles": "CCc1cc(=O)n(CC(=O)Nc2cccc(SC)c2)c(N2CCOCC2)n1", "Potency": "inconclusive: 50.1 µM [inhibitor, partial curve, poor fit]"}
{"smiles": "COc1cc(Cl)ccc1OCc1nc2c(n1Cc1ccccc1)C(=O)N(Cc1ccccc1C#N)CCN2", "Potency": "inconclusive: 20 µM [inhibitor, full curve]"}
{"smiles": "COc1ccc(-c2cnc([C@@H]3COCCN3C3CCN(C(C)=O)CC3)[nH]2)cc1", "Potency": "inactive"}
{"smiles": "C=CC(O)CN1CCC(=O)N(Cc2ccccc2)Cc2ccccc21", "note": "(configuration not stated)", "Potency": "inconclusive: 56.2 µM [inhibitor, partial curve, poor fit]"}
{"smiles": "O=[S+]([O-])(c1ccccc1)N1CCCN(c2ccc3nnc(-c4ccccc4)n3n2)CC1", "Potency": "inconclusive: 50.1 µM [inhibitor, partial curve, poor fit]"}
{"smiles": "C=CCNC(=O)[C@@H]1Cc2cn(CC#CC)c3cccc(c23)[C@H](CC(C)C)N1", "Potency": "inconclusive: 70.8 µM [inhibitor, partial curve, poor fit]"}
{"smiles": "CCCN1C(=O)C(CC(=O)N2CCCC(C)C2)Sc2ncccc21", "note": "(configuration not stated)", "Potency": "inconclusive: 44.7 µM [inhibitor, partial curve, poor fit]"}
{"smiles": "COc1ccc(CC(=O)N2CCC(Cc3nc(-c4ccccc4)no3)CC2)cc1OC", "Potency": "active: 35.5 µM"}
{"smiles": "CCOC(=O)c1ccc(CNC(=O)N2CCC3(CC2)CN(c2ccccc2)C3=O)cc1", "Potency": "inconclusive: 50.1 µM [inhibitor, partial curve, poor fit]"}
{"smiles": "O=C(c1cn2cc(-c3ccccc3)sc2n1)N1CCOCC1", "Potency": "active: 89.1 µM"}
{"smiles": "CCOC(=O)[C@@H]1CN(C(=O)C2CC2)[C@H]2c3cccc(F)c3O[C@@H]12", "Potency": "inconclusive: 39.8 µM [inhibitor, single point]"}
{"smiles": "COc1ccc(-n2nc(C3CCN(Cc4ccc(F)cc4)CC3)[nH]c2=O)cc1", "Potency": "active: 17.8 µM and inconclusive: 50.1 µM [inhibitor, partial curve, poor fit]"}
{"smiles": "CCOC(=O)c1cn(C2CN(C(=O)Cc3ccccc3F)C2)nn1", "Potency": "inactive"}
{"smiles": "O=C(c1ccncc1)N1CCC(C2CCN(Cc3cccc(F)c3F)CC2)C1", "note": "(configuration not stated)", "Potency": "inconclusive: 100 µM [inhibitor, single point]"}
{"smiles": "Cc1ccc2c(c1)nc1n2[C@@H](CNCc2nc3ccccc3n2C)COC1", "Potency": "inconclusive: 89.1 µM [inhibitor, partial curve]"}
{"smiles": "O=C(Nc1cccc(-c2ccc(N3CCOCC3)nn2)c1)Nc1ccccc1Cl", "Potency": "inconclusive: 20 µM [inhibitor, full curve, poor fit]"}
{"smiles": "Cc1ccc(S(=O)(=O)N(C)C2CCc3ccccc32)cc1", "note": "(configuration not stated)", "Potency": "inconclusive: 126 µM [inhibitor, single point]"}
{"smiles": "O=C(Nc1ccc(Oc2cccnc2)cc1)C1CCN(CCCc2ccccc2)CC1", "Potency": "active: 25.1 µM"}
{"smiles": "O=C(c1ccc(Cn2ccn3nc4c(c3c2=O)CCCC4)cc1)N1CCN(c2ccccc2F)CC1", "Potency": "inconclusive: 50.1 µM [inhibitor, partial curve, poor fit]"}
{"smiles": "CN(C)[S+](=O)([O-])c1ccc2c(c1)OCCN(Cc1ccccc1F)C2", "Potency": "inconclusive: 70.8 µM [inhibitor, partial curve, poor fit]"}
{"smiles": "CN1c2cc(C(=O)Nc3ccc(F)cc3)ccc2C(=O)N2CCCCC21", "note": "(configuration not stated)", "Potency": "inconclusive: 89.1 µM [inhibitor, single point]"}
